# Measurements published in US20240301085A1 (SIMCERE ZAIMING PHARMACEUTICAL, published 2024).
# T1: Polypeptide GC3pep of human GPC3 (Ala524-Lys563) (human)
# T1 construct: Membrane proximal end of human GPC3, coated on the ELISA plate; also called polypeptide GC3pep protein; GC3pep polypeptide protein
# T1 peptide: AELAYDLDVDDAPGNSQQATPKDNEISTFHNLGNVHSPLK
# B1: Y035 scFv-hFc (Fc fusion)
# scFv: DIVMTQTPLSLPVITGEPASISCRSSQSLVHSNGNTYLQWYLQKPGQSPQLLIYKVSNRFSGVPDRFSGSGSGTDFTLKISRVEAEDVGVYYCSQSIYVPYTFGQGTKLEIKRGGGGSGGGGSGGGGSEVQLVQSGAEVKKPGASVKVSCKASGYTFSDYEMHWVRQAPGQGLEWMGAIHPGSGDTAYNQRFKGRVTITADKSTSTAYMELSSLRSEDTAVYYCARFYSYAYWGQGTLVTVSA[here human IgG1 Fc with changes without letters]
# notes: Control antibody in the form scFv-human IgG1 Fc; also called antibody Y035
# B2: S001-SIM4 (Fc fusion)
# scFv: DVVMTQTPLSLPVTPGEPASISCRSSQSLVHSNANTYLHWYLQKPGQSPQLLIYKVSNRFSGVPDRFSGSGSGTDFTLKISRVEAEDVGVYYCSQNTHVPPTFGQGTKLEIKGGGGSGGGGSGGGGSEVQLVQSGAEVKKPGASVKVSCKASGYTFTDYEMHWVRQAPGQRLEWMGALDPKTGDTAYSQKFKGRVTLTADTSASTAYMELSSLRSEDTAVYYCTRFYSYTYWGQGTLVTVSS[here human IgG1 Fc with changes without letters]
# notes: also called anti-GPC3 humanized antibody
# B3: S001-SIM2 (Fc fusion)
# scFv: DIVMTQTPLSLPVTPGEPASISCRSSQSLVHSNGNTYLHWYLQKPGQSPQLLIYKVSNRFSGVPDRFSGSGSGTDFTLKISRVEAEDVGVYYCSQNTHVPPTFGQGTKLEIKGGGGSGGGGSGGGGSEVQLVQSGAEVKKPGASVKVSCKASGYTFTDYEMHWVRQAPGQRLEWMGALDPKTGDTAYSQKFKGRVTLTADTSASTAYMELSSLRSEDTAVYYCTRFYSYTYWGQGTLVTVSS[here human IgG1 Fc with changes without letters]
# notes: as for B2
# B4: S001-SIM5 (Fc fusion)
# scFv: DVVMTQTPLSLPVTPGEPASISCRSSQSLVHSNANTYLHWYLQKPGQSPQLLIYKVSNRFSGVPDRFSGSGSGTDFTLKISRVEAEDVGVYYCSQNTHVPPTFGQGTKLEIKGGGGSGGGGSGGGGSEVQLVQSGAEVKKPGASVKVSCKASGYTFTDYEMHWVRQAPGQGLEWMGALDPKTGDTAYSQKFKGRVTLTADKSASTAYMELSSLRSEDTAVYYCTRFYSYTYWGQGTLVTVSS[here human IgG1 Fc with changes without letters]
# notes: as for B2
# B5: S001-SIM3 (Fc fusion)
# scFv: DVVMTQTPLSLPVTPGEPASISCRSSQSLVHSNANTYLHWYLQKPGQSPQLLIYKVSNRFSGVPDRFSGSGSGTDFTLKISRVEAEDVGVYYCSQNTHVPPTFGQGTKLEIKGGGGSGGGGSGGGGSEVQLVQSGAEVKKPGASVKVSCKASGYTFTDYEMHWVRQAPGQRLEWMGALDPKTGDTAYSQKFKGRVTITADTSASTAYMELSSLRSEDTAVYYCTRFYSYTYWGQGTLVTVSS[here human IgG1 Fc with changes without letters]
# notes: as for B2
# B6: T2-23 scFv-hFc (Fc fusion)
# scFv: QSALTQPPSASGSPGQSVTISCTGTSSDVGGYNYVSWYQQYPGKAPKLLIYGNSNRPSGVPDRFSGSKSGTSASLAITGLQAEDGADYYCQSYDSSLRVVFGGGTKVTVLGGGGGSGGGGSGGGGSQVQLQESGGGLVQPGRSLRLSCAASGFTFSSYAMHWVRQAPGKGLEWVSAISSSGRSTYYADSVEGRFTISRDNSKNTLYLQMNSLRAEDTAVYYCAKDRRGSHADALNVWGQGTLVTVSS[here human IgG1 Fc with changes without letters]
# notes: Control antibody in the form scFv-human IgG1 Fc; also called antibody T2-23
# Molecular target: T2, human GPC3-His protein (human, UniProt P51654 25-559)
# T2 construct: Bought protein; also called human GPC3 protein; not shown: His tag
# Test: ELISA, coated human GPC3-His, antibody 100 nM
# Experimental: (§1) After incubation at 37° C. for 2 h, the plate was washed 3 times with PBS.
row,OD450,Binder
1,2.36,B1
2,2.51,B2
3,2.25,B3
4,2.26,B4
5,2.2,B5

# Molecular target: T2, human GPC3-His protein
# Test: ELISA, coated human GPC3-His, antibody 1 nM
# Experimental: as §1
# T2 sequence (P51654 25-559 limits assumed): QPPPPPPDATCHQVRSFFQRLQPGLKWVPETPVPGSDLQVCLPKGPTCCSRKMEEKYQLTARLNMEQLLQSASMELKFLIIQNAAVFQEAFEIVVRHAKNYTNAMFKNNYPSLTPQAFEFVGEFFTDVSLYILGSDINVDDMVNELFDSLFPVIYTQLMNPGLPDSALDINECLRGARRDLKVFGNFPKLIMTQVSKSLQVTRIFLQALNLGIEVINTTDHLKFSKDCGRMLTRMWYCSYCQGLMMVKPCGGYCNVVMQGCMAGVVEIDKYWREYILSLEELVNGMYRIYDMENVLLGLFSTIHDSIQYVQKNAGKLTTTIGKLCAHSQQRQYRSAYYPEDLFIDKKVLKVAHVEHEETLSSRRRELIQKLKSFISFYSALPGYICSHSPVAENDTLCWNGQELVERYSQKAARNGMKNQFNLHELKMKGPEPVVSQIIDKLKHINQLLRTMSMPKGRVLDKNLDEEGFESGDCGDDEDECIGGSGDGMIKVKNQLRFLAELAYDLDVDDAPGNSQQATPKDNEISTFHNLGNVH
row,OD450,Binder
1,2.15,B1
2,2.12,B2
3,1.95,B3
4,2.04,B4
5,1.95,B5

# Molecular target: T3, monkey GPC3-His protein (monkey, UniProt A0A2K5VK50 24-553, Natural GPC3 can be cut by furin into alpha (24-357) and beta (358-553) subunits joined by disulfide bonds. It is given here as one polypeptide. The heparan sulfate chains and the His tag are not …)
# T3 construct: Bought protein; also called monkey GPC3 protein
# Test: ELISA, coated monkey GPC3-His, antibody 0.1 nM
# Experimental: as §1
row,OD450,Binder
1,1.31,B1
2,1.77,B2
3,1.66,B3
4,1.71,B4
5,1.7,B5

# Molecular target: T3, monkey GPC3-His protein
# Test: ELISA, coated monkey GPC3-His, antibody 0.01 nM
# Experimental: as §1
row,OD450,Binder
1,0.36,B1
2,0.44,B2
3,0.44,B3
4,0.47,B4
5,0.44,B5

# Molecular target: T4, murine GPC3-His protein (murine, UniProt Q8CFZ4 25-558, limits assumed)
# T4 construct: Bought protein; also called murine GPC3 protein; not shown: His tag
# Test: ELISA, coated murine GPC3-His, antibody 0.01 nM
# Experimental: as §1
row,OD450,Binder
1,0.26,B6

# Molecular target: T2, human GPC3-His protein
# Test: ELISA, coated human GPC3-His, antibody 10 nM
# Experimental: as §1
row,OD450,Binder
1,2.44,B1
2,2.31,B2
3,2.17,B3
4,2.27,B4
5,2.25,B5

# Molecular target: T4, murine GPC3-His protein
# Test: ELISA, coated murine GPC3-His, antibody 100 nM
# Experimental: as §1
# T4 sequence (Q8CFZ4 25-558 limits assumed): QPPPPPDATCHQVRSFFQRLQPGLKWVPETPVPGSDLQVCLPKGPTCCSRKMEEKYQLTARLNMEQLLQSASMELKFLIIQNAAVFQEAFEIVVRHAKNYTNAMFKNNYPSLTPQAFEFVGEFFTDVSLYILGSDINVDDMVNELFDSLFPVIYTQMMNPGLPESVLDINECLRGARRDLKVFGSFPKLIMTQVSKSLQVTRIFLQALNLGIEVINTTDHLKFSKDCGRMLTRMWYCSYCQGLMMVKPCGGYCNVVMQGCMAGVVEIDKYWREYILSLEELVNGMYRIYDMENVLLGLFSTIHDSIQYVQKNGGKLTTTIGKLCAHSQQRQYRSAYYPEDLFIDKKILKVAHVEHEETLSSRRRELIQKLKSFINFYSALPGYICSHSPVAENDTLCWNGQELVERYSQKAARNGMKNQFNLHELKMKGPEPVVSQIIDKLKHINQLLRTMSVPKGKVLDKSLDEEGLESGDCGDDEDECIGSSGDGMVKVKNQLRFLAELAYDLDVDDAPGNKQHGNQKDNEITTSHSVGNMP
row,OD450,Binder
1,0.38,B1
2,0.11,B2
3,0.11,B3
4,0.1,B4
5,0.2,B5
6,1.71,B6

# Molecular target: T1, Polypeptide GC3pep of human GPC3 …
# Test: ELISA, coated GC3pep, antibody 0.1 nM
# Experimental: as §1
row,OD450,Binder
1,0.57,B1
2,0.94,B2
3,1.03,B3
4,0.85,B4
5,0.93,B5

# Molecular target: T3, monkey GPC3-His protein
# Test: SPR, antibody captured on Protein A chip, monkey GPC3-His as analyte, 1:1 model
# Experimental: (§2) The sample and running buffer was HBS-EP+ (10 mM HEPES, 150 mM NaCl, 3 mM EDTA, 0.05% surfactant P20) (GE Healthcare; BR-1006-69). The flow cell was set at 25° C. The sample block was set at 16° C. Both were pretreated with the running buffer. […] The association and dissociation processes of the antibody with the antigen protein were recorded, and finally, the chip was regenerated using Glycine pH 1.5 (GE Healthcare; BR-1003-54). […] The dissociation phase was monitored for up to 600 s and triggered by switching from the sample solution to the running buffer. The surface was regenerated by washing with 10 mM glycine solution (pH 1.5) at a flow rate of 30 μL/min for 30 s. The difference in bulk refractive index was corrected by subtracting the responses obtained from the goat anti-human Fc surface. […] To calculate the apparent KD and other kinetic parameters, the Langmuir 1:1 model was used.
Kd,koff,kon,Binder
1.27 nM,0.000313 s⁻¹,247000 M⁻¹ s⁻¹,B1
1.19 nM,0.000366 s⁻¹,308000 M⁻¹ s⁻¹,B2
1.47 nM,0.000407 s⁻¹,276000 M⁻¹ s⁻¹,B3
0.541 nM,0.000203 s⁻¹,375000 M⁻¹ s⁻¹,B4
1.13 nM,0.000383 s⁻¹,338000 M⁻¹ s⁻¹,B5

# Molecular target: T4, murine GPC3-His protein
# Test: ELISA, coated murine GPC3-His, antibody 0.001 nM
# Experimental: as §1
row,OD450,Binder
1,0.07,B6

# Molecular target: T1, Polypeptide GC3pep of human GPC3 …
# Test: ELISA, coated GC3pep, antibody 10 nM
# Experimental: as §1
row,OD450,Binder
1,2.27,B1
2,2.41,B2
3,2.45,B3
4,2.43,B4
5,2.38,B5

# Molecular target: T4, murine GPC3-His protein
# Test: ELISA, coated murine GPC3-His, antibody 10 nM
# Experimental: as §1
row,OD450,Binder
1,0.05,B1
2,0.05,B2
3,0.07,B3
4,0.1,B4
5,0.05,B5
6,1.7,B6

# Molecular target: T5, monkey GPC3, full length, on HEK293T cells (monkey)
# T5 construct: whole, on cells; also called HEK293T-monkey GPC3 cells; HEK293T-cynoGPC3
# Test: FACS on HEK293T-monkey GPC3 cells
# Experimental: (§3) Data analysis was performed by software (FlowJo) to obtain the mean fluorescence intensity (MFI) of the cells. Then, analysis was performed by software (GraphPad Prism8), data were fitted, and EC₅₀ values were calculated.
EC50,Max MFI,Binder
5.24 nM,52700,B1
1.35 nM,89200,B2
1.43 nM,97100,B3
1.3 nM,93200,B4
1.42 nM,98100,B5
0.56 nM,36700,B6

# Molecular target: T4, murine GPC3-His protein
# Test: ELISA, coated murine GPC3-His
row,binding result,Binder
1,no binding (tested: 100 nM),B1
2,no binding (tested: 100 nM),B2
3,no binding (tested: 100 nM),B3
4,no binding (tested: 100 nM),B4
5,no binding (tested: 100 nM),B5

# Molecular target: T1, Polypeptide GC3pep of human GPC3 …
# Test: ELISA, coated GC3pep, antibody 100 nM
# Experimental: as §1
row,OD450,Binder
1,2.22,B1
2,2.39,B2
3,2.22,B3
4,2.4,B4
5,2.21,B5

# Molecular target: T4, murine GPC3-His protein
# Test: ELISA, coated murine GPC3-His, antibody 0.0001 nM
# Experimental: as §1
row,OD450,Binder
1,0.05,B6

# Molecular target: T6, human GPC3, full length, on cells (human, UniProt P51654 25-554)
# T6 construct: whole, on cells; also called CHO-K1-human GPC3 cells; CHOK1-hGPC3
# Test: FACS on CHO-K1-human GPC3 cells
# Experimental: as §3
EC50,Max MFI,Binder
3.51 nM,8550,B1
0.99 nM,14900,B2
1 nM,14300,B3
0.72 nM,14800,B4
0.91 nM,14900,B5

# Molecular target: T4, murine GPC3-His protein
# Test: ELISA, coated murine GPC3-His, antibody 0.1 nM
# Experimental: as §1
row,OD450,Binder
1,0.04,B1
2,0.05,B2
3,0.05,B3
4,0.07,B5
5,0.99,B6

# Molecular target: T2, human GPC3-His protein
# Test: SPR, antibody captured on Protein A chip, human GPC3-His as analyte, 1:1 model
# Experimental: as §2
Kd,koff,kon,Binder
1.76 nM,0.000273 s⁻¹,155000 M⁻¹ s⁻¹,B1
1.96 nM,0.000367 s⁻¹,187000 M⁻¹ s⁻¹,B2
2.04 nM,0.000391 s⁻¹,192000 M⁻¹ s⁻¹,B3
1.07 nM,0.000225 s⁻¹,211000 M⁻¹ s⁻¹,B4
2.12 nM,0.000411 s⁻¹,194000 M⁻¹ s⁻¹,B5

# Molecular target: T4, murine GPC3-His protein
# Test: ELISA, coated murine GPC3-His, antibody 1 nM
# Experimental: as §1
row,OD450,Binder
1,0.05,B1
2,0.05,B2
3,0.06,B3
4,0.05,B4
5,0.06,B5
6,1.5,B6

# Molecular target: T1, Polypeptide GC3pep of human GPC3 …
# Test: ELISA, coated GC3pep, antibody 0.01 nM
# Experimental: as §1
row,OD450,Binder
1,0.12,B1
2,0.17,B2
3,0.17,B3
4,0.18,B4
5,0.16,B5
